# Laboratory results published in PubChem BioAssay (NCATS).
# This list was built around the results that the source calls inconclusive (neither active nor inactive); the mix of calls is not that of the screen. A potency beside an inconclusive call is a rough fit, not a confirmed value. Calls of active or inactive are those of the source. Unless noted, calls come from the whole dose curve; as a rule, active = well fitted curve in the direction sought with a large enough effect; inconclusive = small, poorly fitted or top-dose-only effect, or another doubt; inactive = no such curve, though single readings can be large; an effect the other way counts as inactive or inconclusive.
# Columns and labels:
# [1] = biological target: Aldehyde dehydrogenase, mitochondrial (Homo sapiens) (UniProt P05091); test: qHTS for Inhibitors of the Aldehyde Dehydrogenase Family (ALDH2) Confirmatory screens (AID 2061303; active = well fitted inhibition curve with a large enough effect; inconclusive = small, poorly fitted or top-dose-only effect; inactive = no such curve, though single readings can be large or run the other way; title and protocol of this record describe different tests; note: nearly all actives have a fitted effect of over 45% in size); conditions: ALDH inhibition qHTS; activity change, negative = inhibition: at 45.4 µM (top of the series)
# [2] = qHTS for Inhibitors of the Aldehyde Dehydrogenase Family (ALDH1A2, ALDH1A3, ALDH2, ALDH3A1) (AID 2061307); conditions: ALDH inhibition qHTS; activity change, negative = inhibition: at 50.3 µM (top of the series) unless noted; note: nearly all actives have a fitted effect of over 50% in size; for potency: test system not described further here
# [3] = biological target: Aldehyde dehydrogenase, mitochondrial (Homo sapiens) (UniProt P05091); test: qHTS for Inhibitors of the Aldehyde Dehydrogenase Family (ALDH2) Primary screen (AID 2061308); note: nearly all actives have a fitted effect of over 55% in size
# [4] = biological target: Retinaldehyde dehydrogenase 3 (Homo sapiens) (UniProt P47895); test: qHTS for Inhibitors of the Aldehyde Dehydrogenase Family (ALDH1A3) Confirmatory screens (AID 2061311); conditions: activity change, negative = inhibition: at 46 µM (top of the series); note: nearly all actives have a fitted effect of over 60% in size
# [5] = biological target: Retinal dehydrogenase 2 (Homo sapiens) (UniProt O94788); test: qHTS for Inhibitors of the Aldehyde Dehydrogenase Family (ALDH1A2) Confirmation screens (AID 2061314); conditions: activity, negative = inhibition: at 45.9 µM (top of the series) unless noted; note: nearly all actives have a fitted effect of over 65% in size
# [6] = biological target: Retinaldehyde dehydrogenase 3 (Homo sapiens) (UniProt P47895); test: qHTS for Inhibitors of the Aldehyde Dehydrogenase Family (ALDH1A3) Primary screen (AID 2061315); conditions: ALDH inhibition qHTS; activity change, negative = inhibition: at 56 µM (top of the series) unless noted
# [7] = biological target: Aldehyde dehydrogenase 1A1 (Homo sapiens) (UniProt P00352); test: qHTS for Inhibitors of the Aldehyde Dehydrogenase Family (ALDH1A1) Confirmatory screens (AID 2061316); conditions: activity change, negative = inhibition: at 47.3 µM (top of the series); note: nearly all actives have a fitted effect of over 65% in size
# Potency is the fitted concentration of half-maximal effect; tags give direction and shape of the fitted curve.
Compound,Potency [1],Potency [2],Potency [3],Potency [4],Potency [5],Potency [6],Potency [7]
CC(=O)N1CCN(c2ccc(NCc3ccc(Br)o3)cc2)CC1,"inconclusive: 12.7 µM [inhibitor, partial curve]",active: 10.1 µM,"inconclusive: 14.1 µM [inhibitor, partial curve]",active: 17.9 µM,active: 12.7 µM,"inconclusive: 22.4 µM [inhibitor, single point]",
O=C1Nc2cc(Cl)ccc2Nc2cscc21,"inconclusive: 22.5 µM [inhibitor, partial curve]","inconclusive: 22.5 µM [inhibitor, single point]",active: 14.1 µM,"inconclusive: 12.7 µM [inhibitor, partial curve]","inconclusive: 22.5 µM [inhibitor, partial curve]",,
O=C(Nc1cccnc1)c1ccco1,active: 12.7 µM,"inconclusive: 22.5 µM [inhibitor, partial curve]","inconclusive: 14.1 µM [inhibitor, partial curve]","inconclusive: 12.7 µM [inhibitor, partial curve]","inconclusive: 12.7 µM [inhibitor, partial curve]",,
COc1cc(/C=C/C(=O)O[C@H]2[C@H](O)[C@@H](CO)O[C@@]2(CO)O[C@H]2O[C@H](CO)[C@@H](O)[C@H](O)[C@H]2O)cc(OC)c1O,"inconclusive: 6.93 µM [inhibitor, partial curve, poor fit]","inconclusive: 0.0447 µM [inhibitor, full curve, poor fit]",inactive,"inconclusive: 11 µM [inhibitor, partial curve]","inconclusive: 9.79 µM [inhibitor, partial curve]","inconclusive: 7.08 µM [inhibitor, partial curve]","inconclusive: 7.78 µM [inhibitor, partial curve, poor fit]"
COc1ccnc(NC(=S)N2CCN(c3ccc(Cl)c(Cl)c3)CC2)c1,active: 4.47 µM,"inconclusive: 4.47 µM [inhibitor, full curve, poor fit]",active: 15.8 µM,"inconclusive: 10.1 µM [inhibitor, partial curve]",active: 3.57 µM,"inconclusive: 5.01 µM [inhibitor, full curve]",
Cc1ccc(CNc2ncnc3ccc(-c4sc(C)nc4C)cc23)o1,"inconclusive: 15.9 µM [inhibitor, partial curve, poor fit]","inconclusive: 25.2 µM [inhibitor, partial curve]",inactive,"inconclusive: 28.3 µM [inhibitor, partial curve]","inconclusive: 22.5 µM [inhibitor, partial curve]",inactive,active: 15.9 µM
CCC(=O)NC(C)c1cc(Cl)c2ccccc2c1O (configuration not stated),"inconclusive: 7.12 µM [inhibitor, partial curve]","inconclusive: 7.12 µM [inhibitor, partial curve]","inconclusive: 5.01 µM [inhibitor, partial curve, poor fit]",active: 12.7 µM,active: 1.01 µM,"inconclusive: 1.12 µM [inhibitor, full curve]","inconclusive: 10.1 µM [inhibitor, partial curve]"
NC(=O)c1c(NC(=O)c2ccco2)sc2c1CCCC2,active: 8.96 µM,"inconclusive: 20.1 µM [inhibitor, partial curve]","inconclusive: 7.94 µM [inhibitor, partial curve]","inconclusive: 22.5 µM [inhibitor, partial curve]",active: 10.1 µM,inactive,
CN(C)c1ccc(-c2csc(N3CCC(C(N)=O)CC3)n2)cc1,"inconclusive: 14.2 µM [inhibitor, partial curve]",active: 11.3 µM,"inconclusive: 4.47 µM [inhibitor, partial curve, poor fit]",active: 12.7 µM,active: 14.2 µM,"inconclusive: 11.2 µM [inhibitor, partial curve]",
Cc1cccc2c1NC(=O)/C2=C/c1cc(Cl)c(O)c(Cl)c1,"inconclusive: 12.7 µM [inhibitor, partial curve]",active: 4 µM,"inconclusive: 3.98 µM [inhibitor, full curve]","inconclusive: 20.1 µM [inhibitor, partial curve]","inconclusive: 22.5 µM [inhibitor, partial curve]",inactive,"inconclusive: 11.3 µM [inhibitor, partial curve]"
O=S1(=O)N=C(Oc2ccc3ccccc3c2)c2ccccc21,"inconclusive: 12.7 µM [inhibitor, partial curve]","inconclusive: 20.1 µM [inhibitor, partial curve]","inconclusive: 28.2 µM [inhibitor, partial curve]","inconclusive: 28.3 µM [inhibitor, single point]","inconclusive: 11.3 µM [inhibitor, partial curve]",inactive,"inconclusive: 22.5 µM [inhibitor, partial curve]"
Cc1ccnc(NC(=S)N2CCN(c3cccc(Cl)c3Cl)CC2)c1,active: 11.3 µM,"inconclusive: 20.1 µM [inhibitor, partial curve]",active: 6.31 µM,"inconclusive: 11.3 µM [inhibitor, partial curve]",active: 14.2 µM,"inconclusive: 2.82 µM [inhibitor, full curve]",
Cc1ccnc(N(C)C(=S)N2CCN(c3cccc(C(F)(F)F)c3)CC2)c1,"inconclusive: 20.1 µM [inhibitor, partial curve]","inconclusive: 17.9 µM [inhibitor, partial curve]","inconclusive: 2.82 µM [inhibitor, full curve]","inconclusive: 17.9 µM [inhibitor, partial curve]","inconclusive: 14.2 µM [inhibitor, partial curve]","inconclusive: 0.398 µM [inhibitor, full curve, poor fit]",
O=C(O)c1ccc(N2C(=O)/C(=C/c3ccc(-c4ccc([N+](=O)[O-])cc4)o3)C=C2c2ccccc2)cc1,active: 1.59 µM,active: 11.3 µM,active: 3.98 µM,active: 20.1 µM,active: 5.65 µM,"inconclusive: 25.1 µM [inhibitor, partial curve]",active: 3.18 µM
O=C(O)c1ccc(-c2ccc3ncnc(NCc4cccs4)c3c2)o1,"inconclusive: 17.9 µM [inhibitor, partial curve, poor fit]",inactive,"inconclusive: 20 µM [inhibitor, partial curve]","inconclusive: 22.5 µM [inhibitor, partial curve]","inconclusive: 12.7 µM [inhibitor, partial curve]","inconclusive: 14.1 µM [inhibitor, partial curve]","inconclusive: 22.5 µM [inhibitor, partial curve]"
O=C1c2ccccc2NC(c2ccc(-c3cccs3)o2)N1O (configuration not stated),active: 11.2 µM,"inconclusive: 14.1 µM [inhibitor, full curve, poor fit]","inconclusive: 12.6 µM [inhibitor, partial curve]","inconclusive: 25.2 µM [inhibitor, partial curve]",active: 7.98 µM,,
Nc1c(-c2ccccc2)cc[nH]c1=O,"inconclusive: 2.83 µM [inhibitor, full curve]","inconclusive: 2.52 µM [inhibitor, partial curve]","inconclusive: 7.08 µM [inhibitor, partial curve, poor fit]","inconclusive: 10.1 µM [inhibitor, partial curve]",active: 0.159 µM,inactive,"inconclusive: 2.52 µM [inhibitor, full curve, poor fit]"
Cc1ccc(S(=O)(=O)c2ncccc2[N+](=O)[O-])cc1,"inconclusive: 12.7 µM [inhibitor, partial curve]","inconclusive: 20.1 µM [inhibitor, partial curve]",active: 6.31 µM,"inconclusive: 20.1 µM [inhibitor, partial curve]",active: 0.449 µM,"inconclusive: 8.91 µM [inhibitor, full curve, poor fit]","inconclusive: 11.3 µM [inhibitor, partial curve]"
O=C1OCc2cc3cccc(O[C@@H]4O[C@H](CO)[C@@H](O)[C@H](O)[C@H]4O)c3c(O)c21,"inconclusive: 3.12 µM [inhibitor, partial curve]","inconclusive: 6.97 µM [inhibitor, partial curve]","inconclusive: 12.6 µM [inhibitor, single point]",active: 13.9 µM,"inconclusive: 6.97 µM [inhibitor, partial curve]","inconclusive: 17.8 µM [inhibitor, partial curve, poor fit]","inconclusive: 7.83 µM [inhibitor, partial curve]"
COc1ccnc(NC(=S)N2CCN(c3ccccc3C(F)(F)F)CC2)c1,inactive,active: 14.1 µM,"inconclusive: 7.94 µM [inhibitor, partial curve]","inconclusive: 11.3 µM [inhibitor, partial curve, poor fit]",active: 11.3 µM,"inconclusive: 3.55 µM [inhibitor, full curve]",
